According to article PMC4336329 (PLoS ONE, 2015):
Screen size: about 310,000 compounds; about 2,200 (0.71%) showed an effect of 50% or more. Effects have a minus sign here. The list shows a part of the results.

What follows are compounds tested against human ether-à-go-go-related gene (hERG) potassium channel (human, UniProt Q12809) (assay: primary screen, population patch clamp on CHO cells stably expressing hERG).
Chain of human ether-à-go-go-related gene (hERG) potassium channel (Q12809 whole entry, looked up): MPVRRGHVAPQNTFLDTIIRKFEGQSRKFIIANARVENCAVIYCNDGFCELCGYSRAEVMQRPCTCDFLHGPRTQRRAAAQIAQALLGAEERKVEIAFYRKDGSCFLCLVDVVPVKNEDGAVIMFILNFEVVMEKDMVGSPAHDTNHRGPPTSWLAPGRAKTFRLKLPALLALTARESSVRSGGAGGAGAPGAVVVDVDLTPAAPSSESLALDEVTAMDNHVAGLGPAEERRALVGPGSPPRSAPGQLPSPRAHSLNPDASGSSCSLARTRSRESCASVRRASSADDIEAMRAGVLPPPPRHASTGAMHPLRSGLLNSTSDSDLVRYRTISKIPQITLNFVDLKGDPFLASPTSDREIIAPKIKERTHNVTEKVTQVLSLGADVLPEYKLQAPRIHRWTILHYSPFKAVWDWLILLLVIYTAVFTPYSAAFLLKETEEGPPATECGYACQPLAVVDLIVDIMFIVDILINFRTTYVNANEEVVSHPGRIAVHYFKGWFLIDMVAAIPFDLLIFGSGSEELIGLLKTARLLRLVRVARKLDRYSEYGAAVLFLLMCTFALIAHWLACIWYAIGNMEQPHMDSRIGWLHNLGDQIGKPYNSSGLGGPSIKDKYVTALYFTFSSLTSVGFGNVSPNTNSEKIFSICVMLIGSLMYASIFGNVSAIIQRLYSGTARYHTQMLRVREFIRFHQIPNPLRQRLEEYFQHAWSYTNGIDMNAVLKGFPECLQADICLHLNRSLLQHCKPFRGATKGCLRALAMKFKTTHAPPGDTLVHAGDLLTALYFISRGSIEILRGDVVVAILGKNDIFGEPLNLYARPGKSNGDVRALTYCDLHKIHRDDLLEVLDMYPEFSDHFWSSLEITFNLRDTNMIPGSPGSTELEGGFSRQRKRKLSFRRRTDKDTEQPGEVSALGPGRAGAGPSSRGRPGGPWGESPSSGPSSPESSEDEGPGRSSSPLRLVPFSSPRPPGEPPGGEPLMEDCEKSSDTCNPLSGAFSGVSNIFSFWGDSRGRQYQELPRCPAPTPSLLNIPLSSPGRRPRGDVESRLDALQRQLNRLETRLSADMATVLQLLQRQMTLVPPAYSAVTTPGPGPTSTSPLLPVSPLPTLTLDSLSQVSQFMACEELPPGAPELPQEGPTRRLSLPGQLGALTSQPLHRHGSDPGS

| Compound | hERG current change (%, negative = inhibition) at 1uM |
| --- | --- |
| CC(Sc1ccc(Br)cc1)C(N)=O (stereo not drawn) | 9.74% |
| C=CCN1C(=O)C(CC(=O)Nc2ccccc2F)S/C1=N\c1nccs1 (stereo not drawn) | 2.23% |
| O=c1ccn(Cc2ccccc2)cc1 | 15.3% |
| CN(C)C(=O)CCC(=O)N1CCCC(N2CCN(c3cccc(C(F)(F)F)c3)CC2)C1 (stereo not drawn) | 6.92% |
| CCOC(=O)c1sc2cc([N+](=O)[O-])cc(SCCO)c2c1N | 11.5% |
| COc1cccc(C(=O)CN2CCN(S(=O)(=O)c3cccc([N+](=O)[O-])c3)CC2)c1 | 6.87% |
| O=C(CNS(=O)(=O)c1ccc([N+](=O)[O-])cc1)N/N=C/c1ccc(O)cc1O | 23% |
| N#Cc1cccc(NC(=O)CSc2ccc3c4c(cccc24)C(=O)c2ccccc2-3)c1 | 21.4% |
| COc1ccc(C2=CC3=C(Br)C(=O)C(C)(OC(=O)c4cccs4)C(=O)C3=CO2)cc1 (stereo not drawn) | 6.56% |
| Oc1cncc(-c2cccnc2)c1 | 7.49% |
| O=C(NCc1cccnc1)c1cccn1-c1ncc(C(F)(F)F)cc1Cl | 14.9% |
| Cc1ccc2nc(SCC(=O)Nc3cccc(S(N)(=O)=O)c3)[nH]c2c1 | 14.9% |
| CCN(CC)c1nc(=S)nc(NC(C)(C)C)[nH]1 | -3.82% |
| CC(CNC(=O)Cn1ccc2cc(S(=O)(=O)N3CCCC3)ccc21)c1ccccc1 (stereo not drawn) | 6.26% |
| CCOc1ccc(NC(=O)[C@@H](NC(=O)c2ccccc2)[C@@H](C)CC)cc1 | 15.9% |
| O=C(NCc1cccnc1)c1cccc2c1C(=O)N(Cc1cccnc1)C2 | 9.64% |
| CC(=O)Nc1cc(NC(C)=O)c2nc(N)sc2c1.Cl | 7.87% |
| CN(C)CCN(Cc1ccccc1)C(=O)C1CCN(c2ncnc3c2nc2n3CCCCC2)CC1 | 17.3% |
| COCCn1c(SCCOc2ccccc2)nc2ccccc2c1=O | 1.99% |
| COC(=O)c1oc2ccc(Br)cc2c1NC(=O)CN1CCN(C)CC1 | -38.4% |
| O=C(NCc1ccc(F)cc1)C(c1ccc(Cl)cc1)N(C(=O)c1csnn1)C1CC1 (stereo not drawn) | 7.38% |
| CCOc1ccc2nc(NC(=O)C34CC5CC(CC(NC(C)=O)(C5)C3)C4)sc2c1 | -2.64% |
| CCOc1cc2c(cc1OCC)-n1cccc1C(c1ccccc1F)NC2.Cl (stereo not drawn) | 5.64% |

| Compound | hERG current change (%, negative = inhibition) at 1uM |
| --- | --- |
| Cc1ccc(S(=O)(=O)NN2C(=O)c3ccccc3NC2C)cc1 (stereo not drawn) | -1.12% |
| O=C(O)CNS(=O)(=O)c1ccc(Br)s1 | 1.25% |
| CCCCOc1cc(=O)[nH]c(=O)[nH]1 | 3% |
| O=C(NC(=S)NCCO)c1cn(-c2ccccc2)nc1-c1ccccc1 | 21.2% |
| O=C(O)c1ccc2c(c1)C(=O)N(c1ccccc1-c1ccccc1)C2=O | 9.06% |
| Cc1cccc(Nc2ccc([N+](=O)[O-])cc2C(=O)O)c1 | 2.7% |
| CCCCN(CCCC)C(=O)C1CC=CCC1C(=O)O (stereo not drawn) | 11.8% |
| CCOC(=O)C(NC(=O)C1CCCN1C(=O)OCc1ccccc1)C(=O)OCC (stereo not drawn) | 4.03% |
| COc1ccc(N2C(=O)C(Cl)=C(N3CCCC(C)C3)C2=O)cc1 (stereo not drawn) | 9.04% |
| COc1ccc(-c2noc(N3CCC(C(=O)NCc4ccccc4Cl)CC3)n2)cc1 | -0.0528% |
| CCc1ccc(S(=O)(=O)N2c3ccc(C)cc3C3CN(C)CCC32)cc1 (stereo not drawn) | -27.7% |
| COC(C[C@H]1O[C@H]1C(=O)[C@@H](C)OCc1ccccc1)OC | 22.2% |
| CCc1c(O)nc(SCC(=O)N2CCCCC2)n(-c2ccccc2C)c1=O | 6.3% |
| CC(=O)C1=C(O)C(=O)N(c2ccc(Br)cc2)C1c1ccc(Cl)cc1 (stereo not drawn) | 15.3% |
| O=C(CN(Cc1ccccc1Cl)C(=O)c1csnn1)NCc1ccc2c(c1)OCO2 | -4.05% |
| CSc1ccc(-c2cc(=O)c3ccccc3o2)cc1 | 11.2% |
| Nc1ccc2c(c1)C(=O)N(CCCCCC(=O)O)C2 | 9.08% |
| CCOc1ccc(-n2c(-c3ccccc3)c[n+]3c2CCCCC3)cc1.[Br-] | -10.4% |
| CN1CCN(c2oc(-c3ccccc3F)nc2S(=O)(=O)c2ccc(Cl)cc2)CC1 | 8.47% |
| O=C(CSc1ncnc2ccccc12)c1ccco1 | 6.09% |
| CC(=O)CSc1nnc(CN2C(=O)CSc3ccc(C(F)(F)F)cc32)n1C | 7.95% |
| COc1ccc(OCCOC(=O)c2cccs2)cc1 | 17.2% |
